From the supplement of paper PMC9990464
Counter-ions that a name gives are not always drawn. This is one part of the list. Most values come without repeats; read them as rough.

System: KCNR
Experiment: area under viability curve (10 nM-1 µM), viability relative to solvent or trametinib-only control (AUC (arbitrary, % viability x concentration range)); higher = less growth inhibition (more viable cells)
Settings: 72 h compound exposure (96 h after seeding) h; trametinib co-treatment 0 µM
Procedure: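 Four neuroblastoma cell lines (KCNR, SKNBE, SJNB8, SKNAS) were seeded in 384-well plates. At 24 h, 1 µM trametinib or DMSO was added, followed by library compounds at 10 nM, 100 nM and 1 µM. Viability was read by MTT at 96 h and normalised to solvent-treated cells (DMSO arm) or to trametinib-only cells (trametinib arm). The area under the 3-point viability curve was computed in GraphPad Prism; units are as given (approx. 100000 = no effect).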

| SMILES | area under viability curve |
| --- | --- |
| Nc1ccccc1NC(=O)CCCCCCC(=O)Nc1ccccc1 | 103000 |
| CCCN(CCN1CCN(c2ccccc2OC)CC1)C1CCc2ncsc2C1 (stereo not given) | 98700 |
| O=C(NC1CCNCC1)c1n[nH]cc1NC(=O)c1c(Cl)cccc1Cl | 63200 |
| CC(=O)Nc1ccc(C(=O)Nc2ccccc2N)cc1 [Tacedinaline] | 106000 |
| CC(=O)[C@]1(O)Cc2c(O)c3c(c(O)c2[C@@H](O[C@H]2C[C@H](N)[C@H](O)[C@H](C)O2)C1)C(=O)c1ccccc1C3=O [Idarubicin HCl] | 2990 |
| Cc1cn(-c2cc(NC(=O)c3ccc(C)c(Nc4nccc(-c5cccnc5)n4)c3)cc(C(F)(F)F)c2)cn1 [Nilotinib HCl] | 107000 |
| Cc1ccc2nc(N)[nH]c(=O)c2c1Sc1ccncc1 [Nolatrexed 2HCl] | 94900 |
| O=Nc1ccc(O)c2ncccc12 | 101000 |
| CO[C@@]12[C@H](COC(N)=O)C3=C(C(=O)C(C)=C(N)C3=O)N1C[C@@H]1N[C@@H]12 [Mitomycin C] | 43700 |
| O=C(O)C(=O)O.[NH-][C@@H]1CCCC[C@H]1[NH-].[Pt+2] [Oxaliplatin] | 103000 |
| COc1cc([C@@H]2c3cc4c(cc3[C@@H](O[C@@H]3O[C@@H]5CO[C@@H](c6cccs6)O[C@H]5[C@H](O)[C@H]3O)[C@H]3COC(=O)[C@H]23)OCO4)cc(OC)c1O [Teniposide] | 14000 |
| Cn1c(=O)n(-c2ccc(C(C)(C)C#N)cc2)c2c3cc(-c4cnc5ccccc5c4)ccc3ncc21 [Dactolisib] | 47800 |
| Nc1ccn([C@@H]2O[C@H](CO)[C@@H](O)[C@@H]2O)c(=O)n1 [Cytarabine] | 89200 |
| CC1(C)CCC(CN2CCN(c3ccc(C(=O)NS(=O)(=O)c4ccc(NCC5CCOCC5)c([N+](=O)[O-])c4)c(Oc4cnc5[nH]ccc5c4)c3)CC2)=C(c2ccc(Cl)cc2)C1 [Venetoclax] | 40900 |
| C=C1C(=O)O[C@@H](CCC)[C@@H]1C(=O)O [Butyrolactone 3] | 104000 |
| COc1ccc(-c2ccc3c(N4CCOC[C@@H]4C)nc(N4CCOC[C@@H]4C)nc3n2)cc1CO | 50800 |
| O=C1c2c(O)ccc(O)c2C(=O)c2c(NCCNCCO)ccc(NCCNCCO)c21 [Mitoxanthrone HCl] | 6120 |
| C#Cc1cccc(Nc2ncnc3cc(OCCOC)c(OCCOC)cc23)c1 [Erlotinib HCl] | 93200 |
| CS(=O)(=O)N1CCN(Cc2cc3nc(-c4cccc5[nH]ncc45)nc(N4CCOCC4)c3s2)CC1 [Pictilisib] | 69900 |
| COCC[n+]1c2c(n(Cc3cnccn3)c1C)C(=O)c1ccccc1C2=O [Sepantronium bromide] | 4460 |

Same assay, conditions: 72 h compound exposure (96 h after seeding) h; trametinib co-treatment 1 µM

| SMILES | area under viability curve |
| --- | --- |
| Nc1ccccc1NC(=O)CCCCCCC(=O)Nc1ccccc1 | 96400 |
| CCCN(CCN1CCN(c2ccccc2OC)CC1)C1CCc2ncsc2C1 (stereo not given) | 105000 |
| O=C(NC1CCNCC1)c1n[nH]cc1NC(=O)c1c(Cl)cccc1Cl | 66400 |
| CC(=O)Nc1ccc(C(=O)Nc2ccccc2N)cc1 [Tacedinaline] | 106000 |
| CC(=O)[C@]1(O)Cc2c(O)c3c(c(O)c2[C@@H](O[C@H]2C[C@H](N)[C@H](O)[C@H](C)O2)C1)C(=O)c1ccccc1C3=O [Idarubicin HCl] | 1300 |
| Cc1cn(-c2cc(NC(=O)c3ccc(C)c(Nc4nccc(-c5cccnc5)n4)c3)cc(C(F)(F)F)c2)cn1 [Nilotinib HCl] | 97700 |
| Cc1ccc2nc(N)[nH]c(=O)c2c1Sc1ccncc1 [Nolatrexed 2HCl] | 98300 |
| O=Nc1ccc(O)c2ncccc12 | 99700 |
| CO[C@@]12[C@H](COC(N)=O)C3=C(C(=O)C(C)=C(N)C3=O)N1C[C@@H]1N[C@@H]12 [Mitomycin C] | 26000 |
| O=C(O)C(=O)O.[NH-][C@@H]1CCCC[C@H]1[NH-].[Pt+2] [Oxaliplatin] | 100000 |
| COc1cc([C@@H]2c3cc4c(cc3[C@@H](O[C@@H]3O[C@@H]5CO[C@@H](c6cccs6)O[C@H]5[C@H](O)[C@H]3O)[C@H]3COC(=O)[C@H]23)OCO4)cc(OC)c1O [Teniposide] | 6620 |
| Cn1c(=O)n(-c2ccc(C(C)(C)C#N)cc2)c2c3cc(-c4cnc5ccccc5c4)ccc3ncc21 [Dactolisib] | 52200 |
| Nc1ccn([C@@H]2O[C@H](CO)[C@@H](O)[C@@H]2O)c(=O)n1 [Cytarabine] | 86300 |
| CC1(C)CCC(CN2CCN(c3ccc(C(=O)NS(=O)(=O)c4ccc(NCC5CCOCC5)c([N+](=O)[O-])c4)c(Oc4cnc5[nH]ccc5c4)c3)CC2)=C(c2ccc(Cl)cc2)C1 [Venetoclax] | 9590 |
| C=C1C(=O)O[C@@H](CCC)[C@@H]1C(=O)O [Butyrolactone 3] | 103000 |
| COc1ccc(-c2ccc3c(N4CCOC[C@@H]4C)nc(N4CCOC[C@@H]4C)nc3n2)cc1CO | 50700 |
| O=C1c2c(O)ccc(O)c2C(=O)c2c(NCCNCCO)ccc(NCCNCCO)c21 [Mitoxanthrone HCl] | 2400 |
| C#Cc1cccc(Nc2ncnc3cc(OCCOC)c(OCCOC)cc23)c1 [Erlotinib HCl] | 90100 |
| CS(=O)(=O)N1CCN(Cc2cc3nc(-c4cccc5[nH]ncc45)nc(N4CCOCC4)c3s2)CC1 [Pictilisib] | 78100 |
| COCC[n+]1c2c(n(Cc3cnccn3)c1C)C(=O)c1ccccc1C2=O [Sepantronium bromide] | 2510 |
